# Reference: PubChem BioAssay AID651820 (National Center for Advancing Translational Sciences (NCATS), 2012)
# The campaign covered roughly 340,000 compounds. About 12,000 (3.5%) were called active. Inconclusive means that the source gave no clear call. Such entries were picked first, then a sample of the others. Calls come from the whole dose curve; as a rule, active = well fitted inhibition curve with a large enough effect; inconclusive = small, poorly fitted or top-dose-only effect, or another doubt; inactive = no such curve, though single readings can be large or run the other way. Potencies of inconclusive entries are left out as doubtful fits.
# Experiment: qHTS Assay for Inhibitors of Hepatitis C Virus (HCV)
# Details: Huh7.5.1 HCVcc-Cre (HCVcc is cell-culture hepatitis C virus) infection, luciferase reporter, 44 h; series mostly up to 41.8 µM
# In short: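 Reporter virus HCVcc-Cre (~0.5 moi) infects cells exposed to compound; seeding density 1,000 cells/well with 4 h settling beforehand. Luminescence, 15 sec read, taken 44 h post-infection following a 15 min RT substrate incubation.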
# Potency is the fitted concentration of half-maximal effect; tags give direction and shape of the fitted curve.
row,Compound,Potency
1,CC(=O)Nc1ccc(S(=O)(=O)N2Cc3cnnn3-c3ccccc3C2C#N)cc1 (stereo unspecified),active: 0.316 µM
2,CC(C)C1CCN(C(=O)C2CCC(=O)N(CCc3ccc(Cl)cc3)C2)CC1 (stereo unspecified),"inconclusive [inhibitor, single point]"
3,C=CCn1c(SCc2ccc(C(=O)Nc3ccccc3)cc2)nnc1-c1ccccc1,"inconclusive [inhibitor, partial curve]"
4,CN(C)CCNC(=O)C(C(=O)c1ccc(F)cc1)n1ccccc1=O (stereo unspecified),inactive
5,COc1ccc(NC(=O)/C(C#N)=C\c2cc(C)n(-c3ccc(Oc4ccc([N+](=O)[O-])cn4)cc3)c2C)cc1,"inconclusive [inhibitor, full curve]"
6,CC1CCCC(NC(=O)COC(=O)c2cccc(S(=O)(=O)N3CCCCC3)c2)C1C (stereo unspecified),inactive
7,Nc1nonc1-n1nnc(C(=O)N/N=C/c2ccncc2)c1CSc1ccc(Cl)cc1,"inconclusive [inhibitor, single point]"
8,COc1ccc(C(=O)Nc2cccc(NC(=O)c3ccc(OC)c(OC)c3)n2)cc1OC,"inconclusive [inhibitor, partial curve]"
9,CC(=O)NC(=C(Cl)Cl)S(=O)(=O)c1ccccc1,"inconclusive [inhibitor, partial curve]"
10,Cc1[nH]n(-c2ccccc2)c(=O)c1C(=O)Nc1ccccc1,inactive
11,CCCc1cc(=O)oc2cc(C)cc(OCC(=O)Nc3ccc(CN4CCOCC4)cc3)c12,"inconclusive [inhibitor, partial curve]"
12,O=C(Nc1c2c(nn1-c1ccc([N+](=O)[O-])cc1)CS(=O)(=O)C2)c1ccccc1F,inactive
13,Cc1ccc2cccc(NC(=O)c3ccc(Br)o3)c2n1,active: 10 µM
14,O=C(NCc1ccccc1)Nc1cccn(Cc2cccc(F)c2)c1=O,"inconclusive [inhibitor, single point]"
15,CN(C)S(=O)(=O)c1cccc(NC(=O)c2ccc3nccnc3c2)c1,"inconclusive [inhibitor, partial curve]"
16,O=C(COc1ccc(Cl)cc1)N1CCN(c2ccc([N+](=O)[O-])c(N3CCOCC3)c2)CC1,"inconclusive [inhibitor, single point]"
17,CN1C(=O)N(CC(=O)Nc2sccc2C(N)=O)C(=O)C12CCCCC2,inactive
18,O=C(COC(=O)c1cccnc1Cl)NC12CC3CC(CC(C3)C1)C2,inactive
19,COc1ccc2c(c1)c(C(=O)O)c(C)n2CC(C)C,"inconclusive [inhibitor, partial curve, poor fit]"
20,COc1ccccc1/C=C1\SC(=S)N(CCC(=O)NCCc2ccc(O)cc2)C1=O,"inconclusive [inhibitor, partial curve]"
21,O=C(CCc1nc2ccccc2c(=O)[nH]1)N1CCN(C/C=C/c2ccccc2)CC1,"inconclusive [inhibitor, single point]"
22,COc1ccc(N2CCN(C(=O)c3ccc(NC(=O)C4=CSCCO4)cc3)CC2)cc1,inactive
23,CC(=O)c1cccc(N=Nc2c(C)[nH]c3ccccc23)c1,"inconclusive [inhibitor, partial curve]"
24,Cn1c(=O)n(C)c2cc(NC(=O)c3ccccc3[N+](=O)[O-])c(Br)cc21,"inconclusive [inhibitor, single point]"

row,Compound,Potency
1,O=[N+]([O-])c1ccccc1Nc1cccnc1,"inconclusive [inhibitor, full curve]"
2,COc1ccccc1N(CC(=O)NCc1ccccc1)S(C)(=O)=O,"inconclusive [inhibitor, partial curve]"
3,CC1CCCN(CCCCOc2cccc(Br)c2)C1 (stereo unspecified),"inconclusive [inhibitor, partial curve]"
4,CNS(=O)(=O)c1cccc(C(=O)OCC(=O)c2c(N)n(C)c(=O)n(C)c2=O)c1,"inconclusive [inhibitor, single point]"
5,O=c1oc2ccc(C#CC3(O)CCCCC3)cc2cc1-n1cc(-c2ccccn2)nn1,inactive
6,Cc1ccc2nc(Cl)c(CN(Cc3cccs3)C(=O)C3CC3)cc2c1,"inconclusive [inhibitor, partial curve]"
7,CC(=O)c1cccc(NC(=O)c2cc(-c3ccncc3)nc3ccccc23)c1,"inconclusive [inhibitor, partial curve]"
8,CS(=O)(=O)N1CCN(c2ccc(NC(=S)NC(=O)c3ccc4c(c3)OCO4)cc2)CC1,active: 10 µM
9,C=C(C)Cc1c(C)c(C#N)c2[nH]c3ccccc3n2c1=O,"inconclusive [inhibitor, full curve, poor fit]"
10,O=C(Nc1ccc(CN2CCS(=O)(=O)CC2)cc1)c1ccc(Cl)cc1,active: 10 µM
11,Cc1nc(Nc2ccccc2F)c2nnn(Cc3ccccc3Cl)c2n1,inactive
12,COc1ccc(NC(=O)CCOc2ccccc2C)cc1S(=O)(=O)N1CCCCC1,active: 11.2 µM
13,O=C(NCC1CCCO1)c1cccc(NS(=O)(=O)c2ccc(Br)cc2)c1 (stereo unspecified),inactive
14,CCC(CO)Oc1cc(NCc2ccccc2O)c2ncn(C(C)C)c2c1 (stereo unspecified),"inconclusive [inhibitor, single point]"
15,N#CC1=C(N)NC(SCC(=O)c2ccccc2)=C(C#N)C12CCCC2,inactive
16,Cc1cc(Cl)c(S(=O)(=O)Nc2ccc3c(c2)OCCO3)cc1OCC(=O)NC1CCCCC1,inactive
17,Nc1ccn(CC(=O)NCc2ccccn2)c(=O)n1,"inconclusive [inhibitor, full curve, poor fit]"
18,O=C(Nc1ccc(NS(=O)(=O)c2ccccc2)c(Cl)c1)c1ccccc1,inactive
19,COc1cc(Cl)c(NS(=O)(=O)c2ccc(-c3ccc(=O)[nH]n3)o2)c(OC)c1,inactive
20,O=C(Cc1csc(-c2ccccc2)n1)NCc1ccco1,inactive
21,Cc1cccc(NC(=O)C2CCCN2C(=O)OCc2ccccc2)c1 (stereo unspecified),inactive
22,COc1ccc(CNCC(O)COc2cccc3c2OC(C)(C)C3)cc1 (stereo unspecified),"inconclusive [inhibitor, full curve]"
23,CCOc1ccc(S(=O)(=O)Nc2ccc(C(=O)N3CCCC3)cc2)cc1C(N)=O,inactive
24,CCN(CC)S(=O)(=O)c1ccc2c(c1)nc(CCC(=O)Nc1ccc(N3CCOCC3)cc1)n2C,"inconclusive [inhibitor, partial curve]"

row,Compound,Potency
1,O=C(Nc1ccc(S(=O)(=O)Nc2ncccn2)cc1)c1ccc(F)c(S(=O)(=O)N2CCOCC2)c1,inactive
2,COc1ccccc1CNC(=O)c1ccccc1C(=O)NC(C)(C)C(=O)NCc1ccccc1OC,inactive
3,Cc1cc(O)cc2c(=O)c3ccccc3sc12,"inconclusive [inhibitor, single point]"
4,Cc1ccc(/C=N/Nc2nc3ccccc3[nH]2)s1,"inconclusive [inhibitor, single point]"
5,C[C@H]1NC(=O)[C@]2(C)[C@@H](c3ccccc3)[C@H]3COc4ccccc4[C@H]3N2C1=O,"inconclusive [inhibitor, single point]"
6,COc1cccc(/C=N/Nc2nnc3c(n2)[nH]c2ccccc23)c1OC,inactive
7,CCOc1ccc(/C=N/OCC(=O)NC(c2ccccc2)c2ccccc2)cc1,"inconclusive [inhibitor, partial curve]"
8,COC(=O)c1nc(-c2ccc3c(n2)C(=O)C(N)=C(OC)C3=O)c(N)c(-c2ccc(OC)c(OC)c2O)c1C,active: 2.24 µM
9,CCOC(=O)C1CCN(S(=O)(=O)c2ccc(Cl)cc2OC)CC1,"inconclusive [inhibitor, single point]"
10,Cc1ccccc1NCC(=O)N/N=C\C=C\c1cccc([N+](=O)[O-])c1,inactive
11,CCCCOc1ccc(C(=O)NCC(=O)N2CC(C)CC(C)C2)cc1 (stereo unspecified),inactive
12,CC(C)(C)OC(=O)N(CCc1ccccc1)Cc1cccc(OCc2cccc(NC(=O)/C=C/c3ccccc3)c2)c1,"inconclusive [inhibitor, single point]"
13,O=S(=O)(Nc1nc2cc3c(cc2nc1Cl)OCCO3)c1ccccc1,inactive
14,CCN(CC)CCNC(=O)c1ccc(NC(=O)Cc2cccc3ccccc23)cc1,"inconclusive [inhibitor, partial curve]"
15,S=C(Nc1ccc(Oc2ccc(NC(=S)NC3CCCCC3)cc2)cc1)NC1CCCCC1,"inconclusive [inhibitor, single point]"
16,CC(C)(C)OC(=O)C[C@@H]1C/C=C\C[C@H](CC(=O)NCCO)C(=O)N[C@@H](Cc2ccccc2)COC1=O,inactive
17,CC(CCc1ccccc1)NC(=O)COC(=O)c1cc(NS(=O)(=O)c2ccc(Cl)c([N+](=O)[O-])c2)ccc1O (stereo unspecified),"inconclusive [inhibitor, single point]"
18,COc1ccccc1NC(=O)c1cnc2n(c1=O)CCS2,inactive
19,COc1ccc(OCC(=O)Nc2ccccc2C(=O)NC(C)C)cc1,"inconclusive [inhibitor, single point]"
20,CCN(CC)S(=O)(=O)c1cc(NC(=O)Cn2ncc(Cl)c(Cl)c2=O)ccc1C,"inconclusive [inhibitor, single point]"
21,CCc1ccc(OC(C)c2nnc(SCC(=O)Nc3ncccc3C)n2C)cc1 (stereo unspecified),"inconclusive [inhibitor, partial curve]"
22,CCCn1c(=O)c(C(=O)NCc2ccccc2Cl)c(O)c2ccccc21,active: 12.6 µM
23,COc1ccc(-c2ccc(S(=O)(=O)n3nc(OC(=O)c4cccs4)cc3N)cc2)cc1,inactive
